From the antibiotic and cytotoxicity screens of Wong et al. (2023) come the findings set out here.

The other results are listed elsewhere or left out.

One test has as its system HepG2. The test can be described thus: cytotoxicity call (relative viability < 0.9). The following applies: 10 µM.
In the case of `NCCCn1c2c(c3ccccc31)CCCC2`, the cytotoxicity call was “active”.

Take `COC1CCNCC1`: the cytotoxicity call was “inactive”.

Turning to `Cc1ccc(S(=O)(=O)N(C)C[C@@H]2OCCCC[C@H](C)Oc3ccc(NC(=O)Nc4cccc5ccccc45)cc3C(=O)N([C@@H](C)CO)C[C@H]2C)cc1`, the cytotoxicity call is “inactive”.

For `CC(C)C[C@H](NC(=O)[C@@H](Cc1c[nH]c2ccccc12)NC(=O)[C@H](Cc1ccc(O)cc1)NC(=O)[C@H](CO)NC(=O)[C@H](Cc1c[nH]c2ccccc12)NC(=O)[C@H](Cc1cnc[nH]1)NC(=O)[C@@H]1CCC(=O)N1)C(=O)N[C@@H](CCCNC(=N)N)C(=O)N1CCC[C@H]1C(=O)NCC(N)=O`, the cytotoxicity call is “inactive”.

For the compound `CC(=O)OCC(=O)C12OC(C)(C)OC1CC1C3CC(F)C4=CC(=O)C=CC4(C)C3(F)C(O)CC12C` (configuration not stated), the cytotoxicity call is “inactive”.

On to `C[C@@H]1CCCCO[C@H](CN(C)Cc2ccc(Cl)c(Cl)c2)[C@H](C)CN([C@@H](C)CO)C(=O)c2cc(NC(=O)CCC(F)(F)F)ccc2O1`, for which the cytotoxicity call is “active”.

Regarding `C=CCOC(=O)[C@@H]1[C@H]2C(=O)O[C@H](c3ccccc3)[C@H](c3ccccc3)N2[C@H](c2ccc(OCCOC(=O)[C@H]3C[C@H]4C(=O)N5CCC[C@H]5C(=O)N4[C@H]3c3ccc(O)cc3)cc2)[C@@]12C(=O)Nc1ccc(I)cc12`, the cytotoxicity call is “inactive”.

`COc1ccc(CN(C)C[C@H]2OCCCC[C@@H](C)Oc3ccc(NC(=O)Nc4c(C)noc4C)cc3C(=O)N([C@H](C)CO)C[C@H]2C)cc1`: the cytotoxicity call is “inactive”.

`CCCCCCO[C@H](C)c1c(c/2[nH]c1/C=C/1\N=C(/C=C/3\NC4=C(CC(=O)C4=C3C)C3=N/C(=C2)[C@@H](C)[C@@H]3CCC(=O)O)C(=C1C)CC)C`: the cytotoxicity call is “active”.

For the compound `C[C@@H]1CCCCO[C@@H](CN(C)C(=O)c2ccccc2)[C@@H](C)CN([C@H](C)CO)C(=O)c2cc(NC(=O)NC3CCCCC3)ccc2O1`, the cytotoxicity call was “inactive”.

For `C[C@H](CO)N1C[C@H](C)[C@@H](CN(C)C(=O)CN2CCOCC2)Oc2ncc(C#CCN(C)C)cc2C1=O`, the cytotoxicity call was “inactive”.

With `C[C@@H]1CN([C@H](C)CO)C(=O)c2cccc(NC(=O)Nc3cccc4ccccc34)c2O[C@@H]1CN(C)CC1CCCCC1`, the cytotoxicity call was “inactive”.

Consider `Cc1ccc(S(=O)(=O)Nc2ccc3c(c2)C(=O)N([C@@H](C)CO)C[C@H](C)[C@@H](CN(C)C(=O)Nc2cccc4ccccc24)O3)cc1`, for which the cytotoxicity call was “inactive”.

Regarding `C[C@H](CO)N1C[C@H](C)[C@@H](CN(C)S(=O)(=O)c2ccccc2)Oc2ccc(NC(=O)CCC(F)(F)F)cc2CC1=O`, the cytotoxicity call was “inactive”.

`C[C@@H]1CN([C@@H](C)CO)C(=O)c2cc(NC(=O)Nc3cccc4ccccc34)ccc2O[C@@H]1CN(C)C(=O)Nc1ccccc1`: the cytotoxicity call is “inactive”.

For the compound `NC(=O)c1c(Cl)ncc2c1NCC2`, the cytotoxicity call is “inactive”.

As to `C[C@@H]1CCCCO[C@H](CN(C)C(=O)Nc2ccc(C(F)(F)F)cc2)[C@H](C)CN([C@H](C)CO)C(=O)c2cc(NS(=O)(=O)c3ccc(Cl)cc3)ccc2O1`, the cytotoxicity call was “active”.

Take `C[C@H](CO)N1C[C@H](C)[C@@H](CN(C)C(=O)Nc2cccc3ccccc23)Oc2c(NC(=O)Nc3ccc(F)cc3)cccc2C1=O`: the cytotoxicity call is “inactive”.

`COc1cccc(C#Cc2ccc3c(c2)O[C@H](CN(C)S(=O)(=O)c2ccccc2F)[C@H](C)CN([C@@H](C)CO)S3(=O)=O)c1`: the cytotoxicity call was “inactive”.

For `C[C@@H]1CCCCO[C@@H](CN(C)C(=O)CCC(F)(F)F)[C@H](C)CN([C@H](C)CO)C(=O)c2cc(NS(=O)(=O)c3ccc(Cl)cc3)ccc2O1`, the cytotoxicity call is “inactive”.

`CS(=O)(=O)CCOC(=O)C1=CC(c2ccc(CO)cc2)=C[C@@H](C2CC2)N(Cc2cc3c(cc2Br)OCO3)C=C1C(=O)OCCS(C)(=O)=O`: the cytotoxicity call was “inactive”.

For `C[C@@H]1CN([C@@H](C)CO)C(=O)c2cccc(NC(=O)C3CCCCC3)c2O[C@H]1CN(C)C(=O)Nc1cccc2ccccc12`, the cytotoxicity call was “inactive”.

The subject of another test is S. aureus RN4220. The test can be described thus: growth inhibition call (relative growth <= 0.2). The following applies: 50 µM.
Regarding `C[C@@H]1CN([C@@H](C)CO)C(=O)c2cc(NC(=O)c3ccccc3)ccc2O[C@@H](C)CCCCO[C@@H]1CN(C)Cc1ccc2c(c1)OCO2`, the growth inhibition call was “inactive”.

With `Cc1ccc(S(=O)(=O)N(C)C[C@H]2OCCCC[C@@H](C)Oc3ccc(NC(=O)C4CCCCC4)cc3C(=O)N([C@H](C)CO)C[C@@H]2C)cc1`, the growth inhibition call was “inactive”.

`C[C@@H]1CCCCO[C@@H](CN(C)C(=O)Nc2cccc3ccccc23)[C@H](C)CN([C@@H](C)CO)C(=O)c2cc(NC(=O)Nc3ccccc3)ccc2O1`: the growth inhibition call was “inactive”.

As to `CC(=O)OCC[C@H](C)CCC=C(C)C`, the growth inhibition call was “inactive”.

In the case of `C[C@H]1CCCCO[C@@H](CN(C)Cc2ccc(C(F)(F)F)cc2)[C@@H](C)CN([C@@H](C)CO)C(=O)c2cc(NC(=O)CCC(F)(F)F)ccc2O1`, the growth inhibition call was “inactive”.

`CCOC(=O)C1=C(CN2CCOCC2)NC(c2nccs2)=N[C@@H]1c1ccc(F)cc1Br`: the growth inhibition call was “inactive”.

With `Cc1ccc(S(=O)(=O)N(C)C[C@@H]2OCCCC[C@H](C)Oc3ccc(NC(=O)Nc4c(C)noc4C)cc3C(=O)N([C@H](C)CO)C[C@@H]2C)cc1`, the growth inhibition call was “inactive”.

On to `Cc1noc(C)c1NC(=O)N(C)C[C@H]1Oc2ccc(NS(=O)(=O)c3ccccc3)cc2C(=O)N([C@H](C)CO)C[C@H]1C`, for which the growth inhibition call is “inactive”.

For `CN1C(=O)OC(C)(C)C1=O`, the growth inhibition call is “inactive”.

For the compound `C[C@H]1CCCCO[C@@H](CN(C)CC2CCCCC2)[C@@H](C)CN([C@@H](C)CO)C(=O)c2cc(NC(=O)Nc3ccc(F)cc3)ccc2O1`, the growth inhibition call is “inactive”.

In the case of `O=C(C[C@@H]1C[C@@H]2c3cc(NS(=O)(=O)c4ccc(F)cc4)ccc3O[C@@H]2[C@@H](CO)O1)NCc1cccnc1`, the growth inhibition call is “inactive”.

Regarding `CC(=O)c1ccc(S(=O)(=O)N2[C@@H]3CC[C@@H](C3)[C@H]2c2nc3cccc(OCc4ccccc4)c3[nH]2)cc1`, the growth inhibition call is “inactive”.

On to `C[C@H]1CN([C@@H](C)CO)C(=O)c2cc(NS(=O)(=O)c3ccccc3)ccc2O[C@@H]1CN(C)S(=O)(=O)c1ccc(F)cc1`, for which the growth inhibition call was “inactive”.

As to `Nc1ccc(O)c(C(=O)O)c1`, the growth inhibition call is “inactive”.

For the compound `C[C@@H]1CCCCO[C@@H](CN(C)Cc2ccc(C(=O)O)cc2)[C@H](C)CN([C@@H](C)CO)C(=O)c2cc(NC(=O)Cc3ccccc3)ccc2O1`, the growth inhibition call is “inactive”.

As to `C[C@H](O)C#Cc1ccc2c(c1)O[C@@H](CN(C)C(=O)Cc1ccccn1)[C@H](C)CN([C@H](C)CO)S2(=O)=O`, the growth inhibition call was “inactive”.

Consider `O=C(NCC(F)(F)F)C1CCNCC1`, for which the growth inhibition call was “inactive”.

`CNC(=O)C[C@@H]1CC[C@H]2[C@@H](COC[C@@H](O)CN2C(=O)Nc2cccc(OC)c2)O1`: the growth inhibition call is “inactive”.

Regarding `NCCCn1c2c(c3ccccc31)CCCC2`, the growth inhibition call was “inactive”.

For `COC1CCNCC1`, the growth inhibition call is “inactive”.

For the compound `Cc1ccc(S(=O)(=O)N(C)C[C@@H]2OCCCC[C@H](C)Oc3ccc(NC(=O)Nc4cccc5ccccc45)cc3C(=O)N([C@@H](C)CO)C[C@H]2C)cc1`, the growth inhibition call was “inactive”.

With `CC(C)C[C@H](NC(=O)[C@@H](Cc1c[nH]c2ccccc12)NC(=O)[C@H](Cc1ccc(O)cc1)NC(=O)[C@H](CO)NC(=O)[C@H](Cc1c[nH]c2ccccc12)NC(=O)[C@H](Cc1cnc[nH]1)NC(=O)[C@@H]1CCC(=O)N1)C(=O)N[C@@H](CCCNC(=N)N)C(=O)N1CCC[C@H]1C(=O)NCC(N)=O`, the growth inhibition call was “inactive”.

As to `CC(=O)OCC(=O)C12OC(C)(C)OC1CC1C3CC(F)C4=CC(=O)C=CC4(C)C3(F)C(O)CC12C` (configuration not stated), the growth inhibition call was “inactive”.

`C[C@@H]1CCCCO[C@H](CN(C)Cc2ccc(Cl)c(Cl)c2)[C@H](C)CN([C@@H](C)CO)C(=O)c2cc(NC(=O)CCC(F)(F)F)ccc2O1`: the growth inhibition call was “inactive”.

`C=CCOC(=O)[C@@H]1[C@H]2C(=O)O[C@H](c3ccccc3)[C@H](c3ccccc3)N2[C@H](c2ccc(OCCOC(=O)[C@H]3C[C@H]4C(=O)N5CCC[C@H]5C(=O)N4[C@H]3c3ccc(O)cc3)cc2)[C@@]12C(=O)Nc1ccc(I)cc12`: the growth inhibition call is “inactive”.

For `COc1ccc(CN(C)C[C@H]2OCCCC[C@@H](C)Oc3ccc(NC(=O)Nc4c(C)noc4C)cc3C(=O)N([C@H](C)CO)C[C@H]2C)cc1`, the growth inhibition call was “inactive”.

Take `CCCCCCO[C@H](C)c1c(c/2[nH]c1/C=C/1\N=C(/C=C/3\NC4=C(CC(=O)C4=C3C)C3=N/C(=C2)[C@@H](C)[C@@H]3CCC(=O)O)C(=C1C)CC)C`: the growth inhibition call is “inactive”.

In the case of `C[C@@H]1CCCCO[C@@H](CN(C)C(=O)c2ccccc2)[C@@H](C)CN([C@H](C)CO)C(=O)c2cc(NC(=O)NC3CCCCC3)ccc2O1`, the growth inhibition call is “inactive”.

Regarding `C[C@H](CO)N1C[C@H](C)[C@@H](CN(C)C(=O)CN2CCOCC2)Oc2ncc(C#CCN(C)C)cc2C1=O`, the growth inhibition call was “inactive”.

Turning to `C[C@@H]1CN([C@H](C)CO)C(=O)c2cccc(NC(=O)Nc3cccc4ccccc34)c2O[C@@H]1CN(C)CC1CCCCC1`, the growth inhibition call is “inactive”.

Turning to `Cc1ccc(S(=O)(=O)Nc2ccc3c(c2)C(=O)N([C@@H](C)CO)C[C@H](C)[C@@H](CN(C)C(=O)Nc2cccc4ccccc24)O3)cc1`, the growth inhibition call is “inactive”.

As for `C[C@H](CO)N1C[C@H](C)[C@@H](CN(C)S(=O)(=O)c2ccccc2)Oc2ccc(NC(=O)CCC(F)(F)F)cc2CC1=O`, the growth inhibition call is “inactive”.

On to `C[C@@H]1CN([C@@H](C)CO)C(=O)c2cc(NC(=O)Nc3cccc4ccccc34)ccc2O[C@@H]1CN(C)C(=O)Nc1ccccc1`, for which the growth inhibition call is “inactive”.

Turning to `NC(=O)c1c(Cl)ncc2c1NCC2`, the growth inhibition call is “inactive”.

For `C[C@@H]1CCCCO[C@H](CN(C)C(=O)Nc2ccc(C(F)(F)F)cc2)[C@H](C)CN([C@H](C)CO)C(=O)c2cc(NS(=O)(=O)c3ccc(Cl)cc3)ccc2O1`, the growth inhibition call is “inactive”.

Regarding `C[C@H](CO)N1C[C@H](C)[C@@H](CN(C)C(=O)Nc2cccc3ccccc23)Oc2c(NC(=O)Nc3ccc(F)cc3)cccc2C1=O`, the growth inhibition call is “inactive”.

Consider `COc1cccc(C#Cc2ccc3c(c2)O[C@H](CN(C)S(=O)(=O)c2ccccc2F)[C@H](C)CN([C@@H](C)CO)S3(=O)=O)c1`, for which the growth inhibition call was “inactive”.

With `C[C@@H]1CCCCO[C@@H](CN(C)C(=O)CCC(F)(F)F)[C@H](C)CN([C@H](C)CO)C(=O)c2cc(NS(=O)(=O)c3ccc(Cl)cc3)ccc2O1`, the growth inhibition call was “inactive”.

Turning to `CS(=O)(=O)CCOC(=O)C1=CC(c2ccc(CO)cc2)=C[C@@H](C2CC2)N(Cc2cc3c(cc2Br)OCO3)C=C1C(=O)OCCS(C)(=O)=O`, the growth inhibition call was “inactive”.

Turning to `C[C@@H]1CN([C@@H](C)CO)C(=O)c2cccc(NC(=O)C3CCCCC3)c2O[C@H]1CN(C)C(=O)Nc1cccc2ccccc12`, the growth inhibition call was “inactive”.
